Data on 84 variants can be found in the RNAGym collection of RNA variant scans (doi:10.1073/pnas.2313332121).

To fix the notation:
B1: TPR 5TU (parent)
chain: GGAUCUUCUCGAUCUAACAAAAAAGACAAAUCUGCCACAAAGCUUGAGAGCAUCUUCGGAUGCAGAGGCGGCAGCCUUCGGUGGCGCGAUAGCGCCAACGUUCUCAACUAUGACACGCAAAACGCGUGCUCCGUUGAAUGGAGUUUAUCAUG

Variants at the floor of the assay are shown more often than the library holds them.

The series covers variants of B1. Put plainly: polymerase ribozyme fitness, log enrichment relative to wild type (log ratio); higher = more active; in vitro selection for triplet polymerase activity. The method in brief:
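Input and output libraries were sequenced on Illumina after a single in vitro selection round, run in triplicate on PCR-built, transcribed mutant libraries of each subunit of a heterodimeric triplet polymerase ribozyme. Selection annealed libraries to a biotinylated primer, the partner subunit and triplets, incubated them frozen at −7 °C, then gel-excised extended constructs for streptavidin-bead capture and RT-PCR. Genotypes with ≥10 input reads and ≥1 read per output were kept. Fitness is the logarithm, taken in base 2, of genotype enrichment divided by wild-type enrichment, using inverse-variance-weighted replicate averages.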
In the case of G11A U33C A47U C99U C125U G143U, the “polymerase ribozyme fitness (log ratio)” value is ≤ -4.2.

For C10A C95U, the “polymerase ribozyme fitness (log ratio)” value is -3.57.

Consider C10A A21G G86A A89U, for which the “polymerase ribozyme fitness (log ratio)” value was ≤ -4.2.

As for G11C A22C C54A G88A C99U, the “polymerase ribozyme fitness (log ratio)” value is ≤ -4.2.

Regarding C10A A29G A39U G65A C87G C108G G126U, the “polymerase ribozyme fitness (log ratio)” value is ≤ -4.2.

With U9G G83C A98G, the “polymerase ribozyme fitness (log ratio)” value is ≤ -4.2.

G11A C54U G83A A147U: the “polymerase ribozyme fitness (log ratio)” value is -0.578.

For C10G U31C C76U C93G U102C U145G, the “polymerase ribozyme fitness (log ratio)” value was ≤ -4.2.

On to C10U A17G C35U A49C C51U C76A C87U C96A G100A A113G, for which the “polymerase ribozyme fitness (log ratio)” value is ≤ -4.2.

Consider C10U A39C G48C G94C C99A A106G G117A A119G, for which the “polymerase ribozyme fitness (log ratio)” value is ≤ -4.2.

Consider G11C A22C G80A C108A U130A U146G A150G, for which the “polymerase ribozyme fitness (log ratio)” value was ≤ -4.2.

Turning to U9G U145C, the “polymerase ribozyme fitness (log ratio)” value was -3.95.

For the variant C10U A16G C43G U44G U77A U82A A120C, the “polymerase ribozyme fitness (log ratio)” value was ≤ -4.2.

In the case of U9G G25U A64G A73G C87G A89U C125G A137U, the “polymerase ribozyme fitness (log ratio)” value was ≤ -4.2.

Turning to C10G C27U U61A C99A, the “polymerase ribozyme fitness (log ratio)” value is ≤ -4.2.

In the case of G11C C36A U45A C87U A142U, the “polymerase ribozyme fitness (log ratio)” value is ≤ -4.2.

On to G11A A26U U82C C87U, for which the “polymerase ribozyme fitness (log ratio)” value is ≤ -4.2.

Consider U9G A40C, for which the “polymerase ribozyme fitness (log ratio)” value is -3.48.

With G11A A41U A52U U55A C118U, the “polymerase ribozyme fitness (log ratio)” value was ≤ -4.2.

As to G11A C18G A24U G59A A73U G84A A89C C99G G124U C131G, the “polymerase ribozyme fitness (log ratio)” value is ≤ -4.2.

On to C10U A29U A40G A60G A64U G65C G83A G84A A91G U104G, for which the “polymerase ribozyme fitness (log ratio)” value was ≤ -4.2.

Turning to C10G C35G G58U G81A A106G, the “polymerase ribozyme fitness (log ratio)” value is ≤ -4.2.

On to C10U A19U G59C A73U C79U C93A C96A A147G, for which the “polymerase ribozyme fitness (log ratio)” value is ≤ -4.2.

Turning to C10G A19C C27G U78C G83U G94A G117U C118A U148G, the “polymerase ribozyme fitness (log ratio)” value was ≤ -4.2.

As for U9C G62C G80C G86C C87U, the “polymerase ribozyme fitness (log ratio)” value was ≤ -4.2.

With C10U C36U C54U G80U A91C U109A A110U U127A U148G, the “polymerase ribozyme fitness (log ratio)” value was ≤ -4.2.

In the case of G11A A24U A66G U101G A107G A120G U139A, the “polymerase ribozyme fitness (log ratio)” value is ≤ -4.2.

For C10G U31C C95A, the “polymerase ribozyme fitness (log ratio)” value was ≤ -4.2.

Regarding C10U U56A C93U A122U C149U G152U, the “polymerase ribozyme fitness (log ratio)” value was ≤ -4.2.

As for G11A C27A A37C G59C G83A G86A G92A U102G G117U, the “polymerase ribozyme fitness (log ratio)” value was ≤ -4.2.

In the case of U9C C93G G141C, the “polymerase ribozyme fitness (log ratio)” value was ≤ -4.2.

C10U A16C A23U G62C A64G G83C U102G C114U U127G: the “polymerase ribozyme fitness (log ratio)” value was ≤ -4.2.

On to C10G A26U A28C C87A G88U A91C U145C, for which the “polymerase ribozyme fitness (log ratio)” value is ≤ -4.2.

C10A A24C G71A U77G G94A C99A C125U G140C: the “polymerase ribozyme fitness (log ratio)” value is ≤ -4.2.

Turning to U9G G50C C57A C85U G88A A89C G124C, the “polymerase ribozyme fitness (log ratio)” value is ≤ -4.2.

For the variant C10U C116U A147C, the “polymerase ribozyme fitness (log ratio)” value is -3.39.

Turning to C10U A47U A89C C95U C105U, the “polymerase ribozyme fitness (log ratio)” value is ≤ -4.2.

For the variant C10A C14U A30G A41G G59A A60C C99A, the “polymerase ribozyme fitness (log ratio)” value is ≤ -4.2.

As to G11A A28U C57A, the “polymerase ribozyme fitness (log ratio)” value was ≤ -4.2.

For the variant C10G C54G G81A G88C C96A G126C U134G, the “polymerase ribozyme fitness (log ratio)” value is ≤ -4.2.

Consider C10A C76G G81A G86U A137U, for which the “polymerase ribozyme fitness (log ratio)” value is ≤ -4.2.

For the variant C10A C54A, the “polymerase ribozyme fitness (log ratio)” value was ≤ -4.2.

For C10G U13G A20C A41G C51U G74A A147C, the “polymerase ribozyme fitness (log ratio)” value is ≤ -4.2.

Consider U9G A24U C35A C38U C85A G126U, for which the “polymerase ribozyme fitness (log ratio)” value was ≤ -4.2.

For U9C U44A A73U G80C C93U, the “polymerase ribozyme fitness (log ratio)” value is ≤ -4.2.

With C10G A16U C35U C69G C87A G117U U148G, the “polymerase ribozyme fitness (log ratio)” value was ≤ -4.2.

As to G11A U55A U101G, the “polymerase ribozyme fitness (log ratio)” value was -1.01.

As for G11A A23U A37G A73U G128A U148A, the “polymerase ribozyme fitness (log ratio)” value was ≤ -4.2.

For U9G C51A A113G, the “polymerase ribozyme fitness (log ratio)” value is ≤ -4.2.

On to G11C A39U C87U, for which the “polymerase ribozyme fitness (log ratio)” value was ≤ -4.2.

Consider C10G G58U C76A A97U C103G G117C U148G, for which the “polymerase ribozyme fitness (log ratio)” value is ≤ -4.2.

As for G11A U31A A39U C93G C95U C99U A107G A113U C132U U135C A138G, the “polymerase ribozyme fitness (log ratio)” value was ≤ -4.2.

As for C10A C93G U146C U151G, the “polymerase ribozyme fitness (log ratio)” value is ≤ -4.2.

With C10U C35A G42C G59C A66G A120G A122U G136A, the “polymerase ribozyme fitness (log ratio)” value was ≤ -4.2.

Turning to C10U C36A U45C C85U A119G U145G, the “polymerase ribozyme fitness (log ratio)” value was ≤ -4.2.

Regarding C10A A49U C57G A64G G92U, the “polymerase ribozyme fitness (log ratio)” value was ≤ -4.2.

On to U9G A29C C32G G58C C76A C79A C118G G141C G143A, for which the “polymerase ribozyme fitness (log ratio)” value was ≤ -4.2.

Regarding G11C A20U C69G G71C G80A A91U U144G, the “polymerase ribozyme fitness (log ratio)” value was ≤ -4.2.

On to U9G C54G C57A C85U G117U, for which the “polymerase ribozyme fitness (log ratio)” value is ≤ -4.2.

As for G11A A91G, the “polymerase ribozyme fitness (log ratio)” value is -3.81.

Regarding G11C A19U G92A, the “polymerase ribozyme fitness (log ratio)” value is ≤ -4.2.

Consider G11C A41C U55A C85U G117C A150G, for which the “polymerase ribozyme fitness (log ratio)” value is ≤ -4.2.

G11A G81A C93G C116U C129G: the “polymerase ribozyme fitness (log ratio)” value is ≤ -4.2.

Take G11A U13G A29U C85U C103U A138U: the “polymerase ribozyme fitness (log ratio)” value is ≤ -4.2.

Turning to G11A G25C G50A A52G C75G U90G C103U U144A, the “polymerase ribozyme fitness (log ratio)” value is ≤ -4.2.

As for C10U A26C U31G A91G C95G C108U, the “polymerase ribozyme fitness (log ratio)” value was ≤ -4.2.

Consider G11A G141U, for which the “polymerase ribozyme fitness (log ratio)” value is 0.246.

Turning to U9G A66C C95U C96A C131U, the “polymerase ribozyme fitness (log ratio)” value is ≤ -4.2.

Turning to C10A G81C, the “polymerase ribozyme fitness (log ratio)” value is ≤ -4.2.

As for U9C G42U U55A C96G, the “polymerase ribozyme fitness (log ratio)” value is ≤ -4.2.

G11A C57A: the “polymerase ribozyme fitness (log ratio)” value was -1.44.

In the case of C10A A22U G83C G117C C149U, the “polymerase ribozyme fitness (log ratio)” value is ≤ -4.2.

As for U9G G48A U53A A64G U77G C87U A138G, the “polymerase ribozyme fitness (log ratio)” value is ≤ -4.2.

For the variant G11C A41U U44A G58A U77A G80A G83U, the “polymerase ribozyme fitness (log ratio)” value is ≤ -4.2.

Consider C10A C32U A39G G81C A89U C105U C129A U145C, for which the “polymerase ribozyme fitness (log ratio)” value is ≤ -4.2.

In the case of C10U G48A G88A C96A A142U, the “polymerase ribozyme fitness (log ratio)” value is ≤ -4.2.

For C10A A47G A52C G68C C85A, the “polymerase ribozyme fitness (log ratio)” value is ≤ -4.2.

Turning to G11C A52G G84A G133C G141A, the “polymerase ribozyme fitness (log ratio)” value is ≤ -4.2.

As to C10G C57U C72U C87A A91G A110C U139A A147C, the “polymerase ribozyme fitness (log ratio)” value is ≤ -4.2.

As to C10G C63U A89U C95U A138C A147U, the “polymerase ribozyme fitness (log ratio)” value is ≤ -4.2.

Take C10G A19G A30C U78G G92C C132U: the “polymerase ribozyme fitness (log ratio)” value is ≤ -4.2.

As for C10G U15G A49C A60C C69U A73U C96U, the “polymerase ribozyme fitness (log ratio)” value is ≤ -4.2.

As to C10U C18A C35A U53G C93G, the “polymerase ribozyme fitness (log ratio)” value is ≤ -4.2.

Regarding C10G A29C C38G A52U C87U G88U C93U A110U, the “polymerase ribozyme fitness (log ratio)” value was ≤ -4.2.
